Experimental data reported in PubChem BioAssay AID540317 (National Center for Advancing Translational Sciences (NCATS), 2011).
“And” between values parts separate entries of the source, which are not always exact repeats. Equal entries are not always repeated. The campaign covered roughly 390,000 compounds. About 2,200 (0.56%) were called active. Inconclusive results, whose numbers are uncertain, are shown with a selection of clear calls. The call rests on the fitted dose curve; in most records, active means well fitted inhibition curve with a large enough effect; inconclusive means small, poorly fitted or top-dose-only effect; inactive means no such curve, though single readings can be large or run the other way. Potencies beside an inconclusive call are fits to weak or partial responses and may not hold up.

Target: Chromobox protein homolog 1 (Homo sapiens) (UniProt P83916)
Assay: HTS for Inhibitors of HP1-beta Chromodomain Interactions with Methylated Histone Tails; further: nearly all actives have a fitted effect of over 70% in size
Details: AlphaScreen HP1-beta / biotin-H3K9me3 peptide binding; series mostly up to 114 µM
Text: As our understanding of epigenetics expands, it is becoming clear that players in this field are potential targets for drug development. This area of epigenetic therapy has established applications for the treatment of cancer and neurological diseases. We have been involved in this field for a number of years and have performed high-throughput screens to identify the first small molecule inhibitors of protein methyltransferases. These methyltransferases target multiple substrates, and thus regulate many arms of an epigenetic pathway. The methylation of different substrates often generates docking sites for effector proteins that harbor binding domains (chromo, tudor, PHD, MBT and ANK repeats). It has been proposed that the binding sites generated for different proteins by these post-translational modifcations mediate downstream effects on chromatin. Consistent with this theory, di- and tri-methylation of histone H3K9 facilitates the binding of heterochromatin protein HP1. The HP1 protein harbors a chromodomain that is responsible for the methyl-dependent interaction between HP1 and lysine 9 of histone H3. HP1 was first described in flies as a heterochromatin associated protein that can regulate gene silencing. It harbors a chromodomain that binds H3K9me3. In addition, it harbors a chromoshadow domain that interacts with a large number of proteins that are involved in heterochromatin formation and gene repression. There are three highly related HP1 isoforms. All three variants are associated with pericentric heterochromatin and it is not clear whether they have specific or redundant functions. MPP8 is also involved in the repression of gene in euchromatic regions (unpublished data) and like HP1 its chromodomain binds H3K9me3. MPP8 harbors an ankyrin repeat region that is likely involved in binding and recruiting interacting proteins with transcriptional repressive function, much like the chromoshadow domain of HP1 does. We hypothesize that by inhibiting specific protein-protein interactions we will be able to develop compounds that block a single arm of an epigenetic pathway. The specificity attained by blocking a single protein-protein interaction will be far greater than that attained by blocking the enzyme that regulates one of many interactions. Low-affinity protein-protein interactions (Kd in the single- to double-digit micromolar range) such as those discussed here have been very difficult to assay by traditional techniques such as fluorescence polarization or fluorescence resonance energy transfer. We have developed a sensitive chemiluminescence-based assay (Quinn, et al. 2009), which serves as the starting point for this project. The following is a validation assay to identify lead compounds that can block methyl-dependent protein-protein interactions (specifically HP1-beta), which can be used as probes to analyze these methyl-driven interactions and perhaps even developed into targeted epigenetic therapies. NIH Chemical Genomics Center [NCGC] NIH Molecular Libraries Probe Centers Network [MLPCN] MLPCN Grant: DA031087 Assay Submitter (PI): Mark Bedford, University of Texas, Medical Anderson Cancer Center, TX
To each well, 2 uL of HP1-beta protein (final 50 nM) and 1 uL biotinylated histone peptide trimethylated at Lys9 [b-H3(1-18)K9me3] (final 50 nM) was added in 1x PBS buffer, pH 7.4, containing 0.01% Tween-20 using a nanoliter dispenser. Formation of a protein-peptide complex proceeded at room temperature for 30 min. A Kalypsys pin-tool was employed to transfer 23 nL of library compound solution in DMSO to each well. Aurintricarboxylic acid (ATA) was used as an intraplate control with a 12-point titration in duplicate. Following a 30 min incubation of the protein-peptide complex with compounds at room temperature, a mixture of 40 ug/mL each streptavidin-coated donor and nickel chelate acceptor AlphaScreen beads (final 10 ug/mL) was added in a 1 uL dispense for a final volume of 4 uL. […]
Potency means the concentration at half of the fitted maximal effect; tags describe the fitted curve by direction and shape.

Chain of UniProt P83916 (P83916 whole entry, looked up): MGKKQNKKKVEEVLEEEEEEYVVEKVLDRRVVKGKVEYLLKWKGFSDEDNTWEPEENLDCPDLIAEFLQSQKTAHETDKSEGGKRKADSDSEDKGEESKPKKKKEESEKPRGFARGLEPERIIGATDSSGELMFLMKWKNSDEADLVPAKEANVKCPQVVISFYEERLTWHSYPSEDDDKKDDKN

SMILES | Potency
Cc1ccc(C(=O)O/N=C\c2ccc(N3CCCCC3)c([N+](=O)[O-])c2)cc1 | inconclusive: 12.6 µM [inhibitor, partial curve, poor fit]
CC(C)C[C@@]12C(=O)N(c3cccc(F)c3)C(=O)N1[C@H](c1ccc(F)cc1)[C@@H]1C(=O)N(C3CCCCC3)C(=O)[C@@H]12 | inactive
COc1ccccc1C(=O)Nc1ccc(N2CCCCC2)cc1 | inconclusive: 50.1 µM [inhibitor, partial curve]
COc1ccc(C(=O)CC(=O)c2ccc(OC)cc2)cc1 | inactive
c1cncc(-c2nc(-c3ccc4c(c3)OCCO4)cs2)c1 | inactive
COc1cccc(CNc2ncc(-c3ccccc3)n2C)c1 | inconclusive: 44.7 µM [inhibitor, partial curve]
Cc1cc(C)nc(SCC(=O)NNC(=O)c2cccs2)n1 | inconclusive: 79.4 µM [inhibitor, single point]
CCCN(CCC)c1nc2c(C)cccn2c(=O)c1/C=C1/SC(=S)N(Cc2ccco2)C1=O | inconclusive: 14.1 µM [inhibitor, partial curve]
O=C1C=C(Nc2cccc3cccnc23)c2ccccc2C1=O | inconclusive: 25.1 µM [inhibitor, full curve]
C=C(C)C(=O)Nc1cccc(C2=NOC3(C2)C[C@H](C(N)=O)N(C(=O)CC#N)C3)c1 (some centres not stated) | inconclusive: 22.4 µM [inhibitor, full curve]
CC(/C=C1\SC(=S)N(CCC(=O)Nc2cccc(C(=O)O)c2)C1=O)=C\c1ccccc1 | active: 70.8 µM
O=C(CSc1nnc(-c2cccs2)o1)Oc1ccccc1Cl | inactive
Cc1cc(NC(=O)Nc2ccc(F)c(Cl)c2)no1 | inactive
O=C(Cn1ccn(-c2ccc(F)cc2)c(=O)c1=O)Nc1ccc(F)cc1 | inactive
O=C1NC(=Nc2ccccc2Cl)S/C1=C\c1cccc([N+](=O)[O-])c1O | inconclusive: 15.8 µM [inhibitor, full curve]
O=C1S/C(=C\C=C\c2ccco2)C(=O)N1c1ccccc1 | inconclusive: 14.1 µM [inhibitor, partial curve]
CCOC(=O)c1nc(NCc2ccc(Cl)cc2)c2c(C)noc2n1 | inactive
COc1ccc(-c2cn(-c3ccc(C)cc3)c(=O)n2CC(=O)Nc2ccc(OC)c(OC)c2)cc1 | inconclusive: 15.8 µM [inhibitor, full curve]
COc1ccc(N2CCN(CC(O)COC(c3ccccc3)c3ccccc3)CC2)cc1 (configuration not stated) | inconclusive: 44.7 µM [inhibitor, partial curve]
CCOC(=O)c1cnn(CCOC(=O)c2ccccc2F)c1NC(=O)c1ccccc1F | inactive
Cc1cc(/C=N/N2CCN(C)CC2)c(C)n1-c1ccc(Cl)cc1 | inconclusive: 50.1 µM [inhibitor, partial curve]
Cc1ccc(S(=O)(=O)N2CCN(c3nc(-c4cccs4)cc4ccccc34)CC2)cc1 | inactive
COc1ccc(C(=O)Nc2cccc(/C=C(\CCC(=O)O)c3nc4ccccc4s3)c2)cc1 | active: 31.6 µM
COc1ccc(C2=CSC3=NNC4(CCCCC4)NN23)cc1 | inconclusive: 44.7 µM [inhibitor, partial curve]

SMILES | Potency
c1ccc(COc2ccc(CNCc3cccs3)cc2)cc1 | inactive
CC(C)N(Cc1cnn(C)c1)Cc1nc(COc2ccccc2)no1 | inconclusive: 25.1 µM [inhibitor, full curve]
COc1ccc(N2CCN(C(=O)c3ccc(COc4ccc([N+](=O)[O-])cc4)o3)CC2)cc1 | inconclusive: 17.8 µM [inhibitor, full curve]
Clc1ccc(CN2CCCCCCC2)cc1 | inconclusive: 25.1 µM [inhibitor, single point]
COc1cc(CNC2CCCCC2OC)cc(OC)c1 (configuration not stated) | inconclusive: 14.1 µM [inhibitor, full curve, poor fit]
Cc1sc2ncnc(N/N=C/c3ccccc3O)c2c1C | inactive
Cc1cc(C)c2sc(N3CCN(C(=O)c4ccc(N(C)C)cc4)CC3)nc2c1 | inconclusive: 35.5 µM [inhibitor, partial curve]
CCOC(=O)C1CCCN(C(=O)c2cc(S(=O)(=O)Nc3ccccc3OC)ccc2C)C1 (configuration not stated) | inactive
COc1ccc(N2C(=O)CC(N3CCN(C(=O)c4ccco4)CC3)C2=O)cc1 (configuration not stated) | inactive
Cc1ccccc1NC(=S)NC(NC(=O)C(C)(C)C)C(Cl)(Cl)Cl (configuration not stated) | inactive
COc1cc(N=c2ssnc2Cl)cc(OC)c1OC | inactive
CCc1ccc(C(=O)NNC(=O)c2c(CC)noc2C)cc1 | inactive
COc1cc2nc(C3CCC3)n(NC(=O)C3CCC(OC)CC3)c(=O)c2cc1OC (configuration not stated) | inactive
Cc1ccc(/C=C/C(=O)Nc2ccc([N+](=O)[O-])c(NC(=O)/C=C/c3ccc(C)o3)c2)o1 | inconclusive: 56.2 µM [inhibitor, partial curve, poor fit]
CC(=O)Nc1ccc(NC(=O)C/C(C)=N/NC(N)=S)cc1 | inconclusive: 20 µM [inhibitor, full curve]
Cc1ccc(OCCCCn2cnc3ccccc32)c(C)c1 | inconclusive: 25.1 µM [inhibitor, single point]
Oc1ccc(NCc2ccccc2OCc2ccccc2F)cc1 | inconclusive: 56.2 µM [inhibitor, partial curve, poor fit] and inconclusive: 44.7 µM [inhibitor, partial curve]
COc1ccc(-c2c3c(=O)n(C)c(=O)n(C)c3cn2C2CCCCC2)cc1 | inconclusive: 50.1 µM [inhibitor, partial curve, poor fit]
CCOC(=O)c1cccc(Nc2cc(-c3ccccc3)ncn2)c1 | inconclusive: 39.8 µM [inhibitor, single point]
CCOC(=O)C1CCCCN1Cc1cccc(F)c1 (configuration not stated) | inconclusive: 70.8 µM [inhibitor, single point]
CCOc1ccc(CN2CCC(Cc3ccccc3)CC2)cc1 | inconclusive: 39.8 µM [inhibitor, partial curve, poor fit]
COc1ccc(CN2CC(=O)N(c3ccc(C)c(C)c3)C2=S)cc1OC | inconclusive: 100 µM [inhibitor, single point]
CCn1c2ccccc2c2nnc(SCC(=O)NC3CCS(=O)(=O)C3)nc21 (configuration not stated) | inactive
COc1cc(CN2CCN(Cc3ccc(C(F)(F)F)cc3)CC2)cc(OC)c1OC | inconclusive: 14.1 µM [inhibitor, partial curve, poor fit]

SMILES | Potency
COc1cccc(NC(=O)C2=C(C)C(=O)OC23CCN(C(C)=O)CC3)c1 | inactive
CC(C)(C)N1C(=O)Cc2c1nc(N)c1c(N)nc(N3CCCCC3CO)c(C#N)c21 (configuration not stated) | inconclusive: 39.8 µM [inhibitor, partial curve, poor fit]
CCCCN(C)CCNC(=O)CSCc1ccc(C)cc1 | inconclusive: 44.7 µM [inhibitor, partial curve]
O=C(CSc1nnc2ccc(-c3ccccn3)nn12)Nc1ccccc1 | inactive
O=C(c1cccs1)N1CCN(Cc2cccc([N+](=O)[O-])c2)CC1 | inconclusive: 70.8 µM [inhibitor, single point]
Cn1c(=O)c2c(ncn2CCOc2ccc(F)cc2)n(C)c1=O | inconclusive: 89.1 µM [inhibitor, single point]
CC(=O)N1CSCC1C(=O)NNS(=O)(=O)c1ccccc1 (configuration not stated) | inactive
O=c1c2nccnc2[nH]c(=S)n1Cc1ccccc1 | inactive
O=C(Nc1cccc(Oc2ccc(C(=O)O)c(C(=O)O)c2)c1)c1ccc(-c2ccccc2)cc1 | inconclusive: 50.1 µM [inhibitor, partial curve]
C/C(=N\N(c1ccccc1)c1ccccc1)c1ccc(O)cc1 | inconclusive: 44.7 µM [inhibitor, partial curve]
CCCNC(=O)Cn1sc2nc(C)cc(C)c2c1=O | inconclusive: 8.91 µM [inhibitor, full curve]
Cc1cc(-c2ccc(C(C)C)c(S(=O)(=O)N3CCN(c4ccccc4)CC3)c2)on1 | inactive
Clc1ccc(C(CCN2CCCC2)Cc2ccccc2)cc1 (configuration not stated) | inconclusive: 50.1 µM [inhibitor, partial curve, poor fit]
COc1ccc(Cl)cc1NC(=O)CN(C)C(=O)c1cc(-c2ccncc2)nc2ccccc12 | inconclusive: 70.8 µM [inhibitor, partial curve]
O=C(NC(=S)N1CCN(c2ccc(Cl)cc2[N+](=O)[O-])CC1)c1cccs1 | inconclusive: 50.1 µM [inhibitor, partial curve]
COc1ccccc1N1CCN(Cc2cccs2)CC1 | inconclusive: 39.8 µM [inhibitor, partial curve]
CS(=O)(=O)Nc1ccccc1C(=O)NCc1ccco1 | inactive
CCOc1ccc(OCC)c(NC(=O)CC(C)n2nc(C)cc2C)c1 (configuration not stated) | inactive
O=C(O)CCCNc1cc(N2CCN(C3CCCCC3)CC2)c2noc3c2c1C(=O)c1ccccc1-3 | active: 22.4 µM
Cc1ccc(NC(=O)c2cc([N+](=O)[O-])ccc2NCc2cccnc2)cc1Cl | inconclusive: 28.2 µM [inhibitor, single point]
COc1ccc(OCc2cc(C(=O)N3C[C@@H](C)O[C@@H](C)C3)no2)c(Cl)c1 | inactive
COc1ccc(OCC(O)CN(C)C(=O)/C=C/c2cccc([N+](=O)[O-])c2)cc1 (configuration not stated) | inactive
COc1cc(NC(=O)CCCC(=O)OCC(F)(F)C(F)F)nc(OC)n1 | inconclusive: 25.1 µM [inhibitor, single point]
C=CCN1C=CC=C/C1=C1\SC(=S)N(C)C1=O | inconclusive: 50.1 µM [inhibitor, partial curve]
